From PubChem BioAssay AID1645882 (National Center for Advancing Translational Sciences (NCATS), 2021)
Out of some 16,000 compounds screened, about 120 (0.75%) were called active. Inconclusive results (about 4%) are left out. Calls come from the whole dose curve; as a rule, active = well fitted inhibition curve with a large enough effect; inconclusive = small, poorly fitted or top-dose-only effect; inactive = no such curve, though single readings can be large or run the other way. This is one part of the list.

molecular target: Rap guanine nucleotide exchange factor 3 (Homo sapiens) (UniProt O95398); test: Validation qHTS for antagonist of cAMP-regulated guanine nucleotide exchange factor 3 (EPAC1); details: EPAC1 Rap1B-BODIPY-GDP exchange, fluorescence; series mostly up to 150 µM; activity change, negative = inhibition: at the top concentration;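 note: plate controls were DMSO for no effect and ATA control for full effect; nearly all actives have a fitted effect of over 75% in size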
Summary of the method: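 EPAC1 (100 nM) mixed with 250 nM RAP1B-BODIPY-GDP and 50 uM GDP; compounds in concentration series, 5 min at room temperature. Fluorescence (ex 480/em 540 nm) read every 5 min for 30 min; normalized to ATA control and DMSO.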

Sequence of UniProt O95398 (O95398 whole entry, looked up): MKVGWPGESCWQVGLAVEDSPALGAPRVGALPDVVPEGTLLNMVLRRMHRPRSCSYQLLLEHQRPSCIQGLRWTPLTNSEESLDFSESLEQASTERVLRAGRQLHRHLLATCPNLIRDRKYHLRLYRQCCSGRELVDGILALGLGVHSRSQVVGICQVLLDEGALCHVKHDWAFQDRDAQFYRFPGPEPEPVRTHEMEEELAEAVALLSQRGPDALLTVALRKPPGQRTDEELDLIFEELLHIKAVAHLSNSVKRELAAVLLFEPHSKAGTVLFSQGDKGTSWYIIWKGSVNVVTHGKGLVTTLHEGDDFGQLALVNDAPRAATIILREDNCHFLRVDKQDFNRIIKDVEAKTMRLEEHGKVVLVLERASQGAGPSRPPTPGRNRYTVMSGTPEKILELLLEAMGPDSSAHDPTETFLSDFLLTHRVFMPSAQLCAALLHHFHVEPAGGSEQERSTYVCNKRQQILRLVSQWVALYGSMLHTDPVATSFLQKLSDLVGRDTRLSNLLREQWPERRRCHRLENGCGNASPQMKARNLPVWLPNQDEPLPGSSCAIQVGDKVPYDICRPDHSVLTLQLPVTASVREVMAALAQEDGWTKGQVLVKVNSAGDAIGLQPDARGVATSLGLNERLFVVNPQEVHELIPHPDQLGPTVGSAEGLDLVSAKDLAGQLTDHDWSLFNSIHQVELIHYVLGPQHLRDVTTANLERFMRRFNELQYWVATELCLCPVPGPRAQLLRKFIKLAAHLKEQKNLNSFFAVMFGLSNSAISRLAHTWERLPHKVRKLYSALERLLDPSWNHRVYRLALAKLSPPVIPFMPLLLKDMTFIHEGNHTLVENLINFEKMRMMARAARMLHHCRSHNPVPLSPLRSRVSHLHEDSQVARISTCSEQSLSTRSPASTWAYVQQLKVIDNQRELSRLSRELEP

Activity change, negative = inhibition, inactive:
COc1ccc(-n2c(CCNC(=O)c3ccccc3C(F)(F)F)nnc2SC)cc1 14%, CN(C)c1ccc(-c2ccc3ncnc(NC4CC4)c3c2)cc1 19.2%, COc1ccccc1CNc1ncncc1-c1ccoc1 21.4%, O=C(NCCN1CCOCC1)c1cnn(-c2nccc(-c3cccs3)n2)c1C1CC1 8.91%, Cc1cnc(CNc2ccnc(-c3c(C)noc3C)n2)cn1 -5.83%, CCC(=O)N[C@@H]1c2ccccc2C2(CCN(Cc3cnc(N(C)C)s3)CC2)[C@H]1OC 15.5%, COc1cc2nc(N3CCN(C(=O)C4COc5ccccc5O4)CC3)nc(N)c2cc1OC (configuration not stated), CC(=O)Nc1ccc(OC(=O)c2ccccc2O)cc1 3.16%, CCNc1ncc2nc(-c3ccc(F)cc3)c(=O)n(C[C@H]3CCCO3)c2n1 7.47%, CN(C)c1ccc(-c2nc(NCCc3cnc[nH]3)c3ccccc3n2)cc1 6.79%, O=C(Nc1ccccc1)N1CCC2(CC1)CCN(C(=O)c1ccncc1)CC2 16.3%, Cc1cc(O)c2c(c1O)C(=O)c1c(O)cc(C)c(O)c1C2=O 18.1%, COc1cc(=O)n2c(c1C(=O)NCc1cccc(F)c1)CCN(Cc1cccnc1)CC2 14.1%, COc1ccccc1CNc1ccnc(-c2ccoc2)n1 20.5%, COc1cc(OC)c2ccc(=O)oc2c1 -9.96%, CCN(CC)C(=O)Nc1ccc(OCC(O)CNC(C)(C)C)c(C(C)=O)c1 (configuration not stated) 16.5%, C=C[C@@](C)(O)CC[C@@H]1[C@@]2(C)CCCC(C)(C)[C@@H]2CC[C@@]1(C)O -6.7%, O=C(CCBr)N1CCN(C(=O)CCBr)CC1 9.51%, COc1cc2c(cc1OC)C(C(C(=O)N(CCc1ccc(OC)c(OC)c1OC)CCc1ccc(OC)c(OC)c1OC)c1ccccc1)=NCC2 (configuration not stated) -3.13%, N[C@H]1CONC1=O 7.6% [at 75.8 µM], CCCCC1C(=O)N(c2ccccc2)N(c2ccc(O)cc2)C1=O (configuration not stated), Cc1cnc(-n2ncc(C(=O)NCCc3cccnc3)c2C)nc1-c1ccc(F)cc1 2.35%, Cc1noc(C)c1-c1nc(NCc2cccs2)c2ccccc2n1 18.2%, O=c1cc(-c2ccc(O)cc2)oc2cc(OC3OC(CO)C(O)C(O)[C@H]3O[C@@H]3OC[C@@](O)(CO)C3O)cc(O)c12 (some centres not stated) 17.3%, COc1ncc2nc(-c3cccs3)c(=O)n(Cc3cccs3)c2n1 7.29%, CCOC(=O)c1c(C)cc(OC)cc1O 7.72%, C[C@]12CCC3c4ccc(O)cc4CCC3C1CCC2=O (some centres not stated) 9.36%, COc1cccc(Nc2ncc3ncc(=O)n(C)c3n2)c1 9.09%, CS(=O)(=O)Nc1cccc(-c2cc(NCc3ccccc3)ncn2)c1 -0.881%, COc1cc(C=O)cc(OC)c1[N+](=O)[O-] 12.4%, CCN(CC)CCOCCOC(=O)C1(c2ccccc2)CCCC1, Cc1ncc2c(c1CNC(=O)c1ccccc1F)CCN(C(=O)c1ccc3c(c1)OCCO3)C2 11%, C[C@@H]1C[C@H]2[C@@H]3CCC4=CC(=O)C=C[C@]4(C)[C@@]3(F)[C@@H](O)C[C@]2(C)[C@H]1C(=O)CO 9.7%, COc1ccc(Oc2ncc3ncc(=O)n(Cc4cccs4)c3n2)cc1 -7.1%, COC(=O)N1CCC2(CCN(C(=O)Nc3cccc(F)c3)CC2)CC1 13.1%, CC(C)C[C@@H](NC(=O)OCC1c2ccccc2-c2ccccc21)C(=O)O 11.6%, O=c1[nH]ccc2c(O)cccc12 13.5% [at 75.8 µM], CC(C)(CO)[C@@H](O)C(=O)NCCC(=O)O 28%, COc1cccc(CN2CCc3nnc(CCc4ccccc4)n3CC2)c1OC 2.72%, Cc1cc(C(C)(C)C)cc(C)c1CC1=NCCN1, CC[C@]1(O)C[C@@H]2CN(CCc3c([nH]c4ccccc34)[C@@](C(=O)OC)(c3cc4c(cc3OC)N(C)C3[C@]45CCN4CC=C[C@](CC)(C45)[C@@H](OC(C)=O)[C@]3(O)C(=O)OC)C2)C1 (some centres not stated) 13.2% [at 75.8 µM], CCN(CCCCOC(=O)c1ccc(OC)c(OC)c1)C(C)Cc1ccc(OC)cc1 (configuration not stated), CCC(C)C(=O)OC1CC(C)C=C2C=CC(C)C(CCC3CC(O)CC(=O)O3)C21 (configuration not stated) 16%, O=P(O)(O)C(O)(Cn1ccnc1)P(=O)(O)O 14.8%, CC(C)CN1CCCC2(CCN(C(=O)c3cccn3C)CC2)C1 11.4%, O=C(c1cc(O)c(O)c([N+](=O)[O-])c1)c1ccccc1F 17.4% [at 75.8 µM], O=c1nc2ccccc2c2n1CC(CN1CCN(c3ccccc3)CC1)N2 (configuration not stated) -12.1%, Nc1nc2c(cnn2CCc2ccccc2)c2nc(-c3ccco3)nn12 -10.4% [at 75.8 µM], COc1cccc(Cn2c(=O)c(C)nc3cnc(Oc4cccc(Cl)c4)nc32)c1 2.49%, O=C(Nc1cccc(F)c1)N1CC2(CCN(C(=O)c3csnn3)CC2)C1 5.68%, O=C(NCC1Cc2cccc(-c3ncccn3)c2O1)C1CCOC1 (configuration not stated) 11.4%, O=C(CCn1cncn1)NCC1Cc2cc(-c3ccsc3)cc(Cl)c2O1 (configuration not stated) 3.4%, Cc1oc(-c2ccccc2NC(=O)C2CCC2)nc1CNC(=O)c1cccc(C(F)(F)F)c1 -7.55%, CC(NC(=O)c1cccnc1)c1nnc2n1CCN(Cc1ccc(-c3ccccc3)cc1)CC2 (configuration not stated) 6.32%, COc1ccc2c(c1)c(CC(=O)O)c(C)n2C(=O)c1ccccc1 8.86% [at 75.8 µM], COc1ccc(-n2c(=O)c(C)nc3cnc(N4CCNCC4)nc32)cc1 22.7%, COc1cc(-c2cc(=O)c3ccccc3o2)ccc1O 5.27%, NC[C@H]1O[C@H](O[C@H]2[C@H](O)[C@@H](O[C@H]3O[C@H](CO)[C@@H](O)[C@H](N)[C@H]3O)[C@H](N)C[C@@H]2N)[C@H](N)C[C@@H]1O 19.8% [at 75.8 µM], CC(=O)N1CCC2(CCCN(c3ncccn3)C2)CC1 3.82%, C=CCOc1ccccc1OCC(O)CNC(C)C (configuration not stated) 15.2% [at 75.8 µM], O=C(O)C1(O)C[C@H](O)C(O)[C@@H](O)C1 (some centres not stated) 6.42%, CN(C)c1ncc2nc(CCc3ccccc3)c(=O)n(-c3ccccc3)c2n1 23.4%, Cc1c(N)c(=O)n(-c2ccccc2)n1C, COc1cccc(CNC(=O)c2c(OC)cc(=O)n3c2CCN(C(=O)c2csc(C)n2)CC3)c1 4.82%, C(=C\c1ccnc2ccccc12)/c1ccnc2ccccc12 16.2%, COc1ccc2c3c1O[C@H]1C[C@H](O)C=C[C@@]31CCN(C)C2 -4.36%, O=C(O)c1ccc[n+]([O-])c1 4.87%, COC(=O)N1CCC[C@@]2(CCN(c3ccccn3)C2)C1 9.17%, CCCCNC(=O)NS(=O)(=O)c1ccc(N)cc1 16.5%, CCOC(=O)/C=C(C)/C=C/C=C(C)/C=C/c1c(C)cc(OC)c(C)c1C -2.3%, C#CCN(Cc1ccccc1)S(=O)(=O)C=C 1.14%, CCNc1ncc2nc(-c3cccs3)c(=O)n(-c3ccc(OC)cc3)c2n1 38.2%, FC(F)(F)c1ccccc1-c1nc(-n2ccnc2)c2ccccc2n1 -12.9%, C[C@@H]1[C@H](c2ccccc2)OCCS(=O)(=O)N1Cc1ccccc1 6.32%, COC(=O)N1CCC2(CCN(Cc3ccc(C#N)cc3)CC2)CC1 8.08%, COc1c(Cl)ccc(Cl)c1C(=O)O -16.8%, CC1CN(c2cc3c(cc2F)c(=O)c(C(=O)O)cn3-c2ccc(F)cc2F)CCN1 (configuration not stated) 32.7%, Cc1ccccc1Cc1nc2cccnc2n1C1CCN(C(=O)CC2NC(=O)c3ccccc32)CC1 (configuration not stated) 15.7%, CC1(C)S[C@@H]2C(C(=O)OCc3ccccc3)NC(=O)N2C1C(=O)OCc1ccccc1 (some centres not stated) -3.32%, O=c1cnc2cncnc2n1Cc1ccc(F)cc1 16.3%, C/C=C(\C)C(=O)OC1[C@@H]2C=C3C4CC(=O)OC(c5ccoc5)[C@]4(C)CCC3[C@@](C)(C2=O)C(C(O)C(=O)OC)C1(C)C (some centres not stated) -1.7%, CN(C(=O)CN(CCO)CC(=O)N(C)C(C)(C)Cc1ccccc1)C(C)(C)Cc1ccccc1, COC(=O)N/N=C/c1c[n+]([O-])c2ccccc2[n+]1[O-] -7.84%, COc1ccc2c(c1)CCc1cnc(-n3ncc(C(=O)NCc4cc(C)no4)c3C3CC3)nc1-2 1.22%, O=S(O)CO 11.2%, CO[C@H]1C=CO[C@@]2(C)Oc3c(C)c(O)c4c(O)c(c(C=NN5CCN(C)CC5)c(O)c4c3C2=O)NC(=O)C(C)=CC=C[C@H](C)[C@H](O)[C@@H](C)[C@@H](O)[C@@H](C)[C@H](OC(C)=O)[C@H]1C 11% [at 39.6 µM], CC(C)C(=O)NCC1CCC2(CCN(Cc3ccc(-c4ccccc4Cl)o3)CC2)O1 (configuration not stated) -1.04%, COC(=O)CC1C(C)(C)C(=O)C2CC3=C4CC(=O)OC(c5ccoc5)[C@]4(C)CCC3[C@@]1(C)C2=O (some centres not stated) -10.4%, COc1cc(NS(=O)(=O)c2ccc(N)cc2)ncn1, O=C(c1cc(C(F)(F)F)cc(C(F)(F)F)c1)N1CCC[C@@]2(CCN(c3ncccn3)C2)C1 11%, COc1ccccc1CCn1c(=O)c(-c2cc(F)cc(F)c2)nc2cncnc21 15.7%, N#CCCn1c(=O)c(-c2cccs2)nc2cnc(Nc3ccccc3)nc21 48.5%, Cc1cc(C)nc(NS(=O)(=O)c2ccc(N)cc2)n1, CS(=O)(=O)Nc1cccc(-c2ccc3ncnc(NC4CCNCC4)c3c2)c1 27.3%, CN1CCC(=O)N([C@H](COc2ccccc2)Cc2ccccc2)CC1 7.61%, C=C1CC[C@H](O)CC1=C/C=C1\CCC[C@]2(C)[C@@H]([C@H](C)CC[C@@H](O)C(C)(C)O)CC[C@@H]12 -9.82%, COCCn1c(=O)c(-c2ccc(Cl)cc2)nc2cnc(OC)nc21 4.87%, FC(F)(F)c1ccccc1-c1cc(NCc2cccnc2)ncn1 8.23%, Cn1cc(C(F)(F)F)nc1-c1ccc(OCC(O)CNCCOc2ccc(O)c(C(N)=O)c2)cc1 (configuration not stated), CN1CCN2c3ncccc3Cc3ccccc3C2C1 (configuration not stated), COc1ccccc1CN1CCC2(CC1)CCN(C(=O)c1ccncc1)CC2 15.9%, C[C@@H]1C/C=C/C=C/C=C/C=C/[C@H](O[C@@H]2O[C@H](C)[C@@H](O)[C@H](N)[C@@H]2O)C[C@@H]2O[C@](O)(C[C@@H](O)C[C@H]3O[C@@H]3/C=C/C(=O)O1)C[C@H](O)[C@H]2C(=O)O 1.38%
